# From article PMC4336329 (PLoS ONE, 2015)
# The whole screen tested about 310,000 compounds, of which about 2,200 (0.71%) showed an effect of 50% or more. Effects have a minus sign here. The list shows a part of the results.
# Target: human ether-à-go-go-related gene (hERG) potassium channel (human, UniProt Q12809)
# Assay: primary screen, population patch clamp on CHO cells stably expressing hERG
# human ether-à-go-go-related gene (hERG) potassium channel, sequence (Q12809 whole entry, looked up): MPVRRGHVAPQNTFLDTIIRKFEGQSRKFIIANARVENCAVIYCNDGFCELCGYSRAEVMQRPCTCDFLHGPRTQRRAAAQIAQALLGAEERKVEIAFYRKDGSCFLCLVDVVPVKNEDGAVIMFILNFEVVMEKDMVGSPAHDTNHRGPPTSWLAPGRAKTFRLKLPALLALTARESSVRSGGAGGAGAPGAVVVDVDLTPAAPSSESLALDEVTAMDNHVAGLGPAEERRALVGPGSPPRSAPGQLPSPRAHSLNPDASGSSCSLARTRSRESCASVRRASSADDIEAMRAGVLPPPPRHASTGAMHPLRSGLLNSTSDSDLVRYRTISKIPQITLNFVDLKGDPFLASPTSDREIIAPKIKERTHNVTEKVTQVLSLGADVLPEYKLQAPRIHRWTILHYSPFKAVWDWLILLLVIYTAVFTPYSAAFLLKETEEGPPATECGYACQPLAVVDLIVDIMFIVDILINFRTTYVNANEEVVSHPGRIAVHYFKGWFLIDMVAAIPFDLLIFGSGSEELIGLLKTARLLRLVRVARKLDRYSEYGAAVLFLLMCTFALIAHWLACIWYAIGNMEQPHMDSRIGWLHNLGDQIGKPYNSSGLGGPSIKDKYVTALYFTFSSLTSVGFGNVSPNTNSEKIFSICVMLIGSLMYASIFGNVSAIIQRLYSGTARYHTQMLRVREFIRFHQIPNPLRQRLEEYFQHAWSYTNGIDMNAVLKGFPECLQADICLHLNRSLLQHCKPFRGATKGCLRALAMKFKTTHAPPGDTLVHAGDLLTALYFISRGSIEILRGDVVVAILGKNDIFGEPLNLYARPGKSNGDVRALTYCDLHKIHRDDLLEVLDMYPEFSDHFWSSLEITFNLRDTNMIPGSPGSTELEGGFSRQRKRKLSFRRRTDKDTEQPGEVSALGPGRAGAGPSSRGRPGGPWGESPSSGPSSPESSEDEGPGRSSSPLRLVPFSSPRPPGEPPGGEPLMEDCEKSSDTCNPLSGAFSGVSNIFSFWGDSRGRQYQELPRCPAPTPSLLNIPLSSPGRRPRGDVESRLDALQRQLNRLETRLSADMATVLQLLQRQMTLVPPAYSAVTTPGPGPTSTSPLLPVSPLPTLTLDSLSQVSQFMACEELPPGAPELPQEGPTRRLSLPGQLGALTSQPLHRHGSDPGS
row,SMILES,"hERG current change (%, negative = inhibition) at 1uM [%]"
1,Cc1c(C(=O)N(C)Cc2ccccc2)oc2c(Cl)cccc12,4.36
2,CCOC(=O)C1(S(=O)(=O)c2ccccc2)CCN(Cc2ccc(Cl)cc2)CC1,17.3
3,CCc1ccc(NP(=O)(Oc2ccccc2F)Oc2ccccc2F)cc1,12.1
4,CC(C)NC(=S)Nc1ccc(S(=O)(=O)Nc2ncccn2)cc1,13.8
5,Cc1nc2ccc(NC(=O)CS(=O)(=O)c3ccc(F)cc3)cc2s1,14.6
6,CC(C)CC(=O)c1c[nH]c(C(=O)NCCCn2ccnc2)c1,13.1
7,Cc1[nH]c(C)c(S(=O)(=O)Nc2ccc(F)cc2Cl)c1C(=O)N1CCCC1,10.5
8,NC(=O)c1nc(C2CCCCC2)nc2c1[nH]c(=O)n2-c1ccc(F)cc1,5.73
9,COc1ccc(C(=O)Nc2cc(-c3ccc(C)cc3)no2)cc1,15.2
10,O=C(CSc1nc(-c2ccccc2)cs1)Nc1nccs1,9.24
11,O=C(Nc1ccc2cn[nH]c2c1)c1c(Cl)cccc1Cl,5.34
12,CCN(C(=O)COC(=O)/C=C/c1cnc2ccccc2n1)C1CCS(=O)(=O)C1 (stereo not shown),0.316
13,Cc1c2c(n3c(nc4ccccc43)c1C#N)N(CCN(C)C)CC2,0.184
14,CCN1CCC(NCCc2ccc(F)cc2)CC1,13.6
15,O=C(O)c1ccc(/C=N\Nc2ccccn2)cc1,12.3
16,S=C(Nc1cccc(Cl)c1)Nc1ccc2cn[nH]c2c1,14
17,Cc1ccc(-n2nc3c(c2NC(=O)C(C)(C)C)CS(=O)(=O)C3)cc1,11
18,COc1cc(OC)cc(C(=O)NC2CC(C)(C)NC(C)(C)C2)c1.Cl,17
19,Cc1ccc(N2CC(C)Cn3c2nc2c3c(=O)[nH]c(=O)n2C)cc1C (stereo not shown),0.855
20,Cc1nn(Cc2ccccc2)c(Cl)c1C(=O)NCCc1ccc(Cl)cc1,3.27
21,Cn1cc(S(=O)(=O)Nc2ccc(F)cc2F)c(=O)n(C)c1=O,12.9
22,CC(=O)Nc1ccc(NC(=O)COc2ccc(Cl)cc2Cl)cc1,11.5

row,SMILES,"hERG current change (%, negative = inhibition) at 1uM [%]"
1,O=C(c1ccc(F)cc1)N1C2CCC1CC(O)(c1ccc(F)cc1)C2 (stereo not shown),-1.39
2,Nc1nc(N2CCN(C(c3ccccc3)c3ccccc3)CC2)n[nH]1,11.6
3,Cc1ccc(C(=O)NCC(=O)O)o1,3.85
4,COC(=O)c1ccc(NC(=O)c2ccc(NS(=O)(=O)c3cccc4cccnc34)cc2)cc1,12.6
5,CN1CCN(c2ccc([N+](=O)[O-])cc2NC(=O)c2ccco2)CC1,-22.4
6,Cc1ccc(-n2nc3c(=O)n(CC(=O)NCCCc4ccccc4)nc(C)c3c2C)cc1,20.2
7,Cc1ccc(-c2noc(-c3cc4ccccc4oc3=O)n2)cc1,3.43
8,COc1ccc2cc3cc(C(=O)NCc4cccs4)oc3nc2c1,5.18
9,O=C(N/N=C/c1cccnc1)c1cccc(N2CCCC2=O)c1,12.4
10,CCCOc1cccc(C2C(C(=O)c3cc4ccccc4o3)=C(O)C(=O)N2c2cc(C)on2)c1 (stereo not shown),15.5
11,COc1ccc2[nH]cc(CCNC(=O)CCC3CCCCC3)c2c1,1.77
12,COc1ccc(C(=O)CSc2nnc(NC(=O)C3CC(=O)N(c4ccccc4)C3)s2)cc1 (stereo not shown),-2.23
13,COc1ccc(Cc2noc(-c3ccccc3)n2)cc1OC,-14.4
14,CN(CCC#N)C(=S)Nc1ccc(F)cc1,11.9
15,CCC(C)[C@H](NC(=O)NCc1ccc(S(N)(=O)=O)cc1)C(=O)O (stereo partly shown),9.74
16,COc1ccc(N2C(=O)CC(NNC(=O)c3cccnc3)C2=O)cc1 (stereo not shown),13.9
17,CCn1c2ccccc2c2cc(NC(=O)COC(=O)c3ccccc3F)ccc21,2.76
18,COc1ccc(/C=N/n2cnn(Cc3ccccc3Cl)c2=S)cc1OC,9.09
19,Nc1nonc1C(=O)N/N=C/c1ccc(-c2cccc([N+](=O)[O-])c2)o1,2.53
20,CCCCCC(=O)Nc1cc2[nH]c(=O)cc(COC)c2cc1C,2.39
21,COc1ccc(/C=C/c2nnc(NC(=O)CC(C)C)s2)cc1,13.1
22,Cc1cc(C)c(C#N)c(Nc2ccc(F)cc2)n1,5.61

row,SMILES,"hERG current change (%, negative = inhibition) at 1uM [%]"
1,CCOCCCn1c(=S)[nH]c2cc(C(=O)NCCc3ccc(OC)c(OC)c3)ccc2c1=O,18.6
2,CCOC(=O)CC1=C(C#N)C(c2cccnc2)C(C(=O)OCC)=C(N)O1 (stereo not shown),12.8
3,COCCN1C=C2C(=O)C(C)(OC(=O)c3cccs3)C(=O)C=C2C=C1CCCC(=O)OC (stereo not shown),11.9
4,O=C(COC(=O)c1ncc(Cl)c(Cl)c1Cl)NC(=O)NCc1ccccc1,-9.22
5,Cc1ccnc2nc(C(=O)OCCOc3ccccc3)nn12,5.02
6,NC(=O)Nn1c(CCC(=O)O)ccc1-c1ccc(Br)cc1,9.49
7,CC(=O)OCCCn1c(C)[n+](C)c2cc(Cl)c(Cl)cc21.[I-],10.8
8,O=Cc1ccc(OC(=O)/C=C/c2ccccc2)cc1,12
9,CCc1cccc(C)c1NC(=O)CSc1nnc(CCCOc2ccc(Cl)cc2Cl)n1C,6.23
10,CCOC(=O)c1nnc2c(Br)c(-c3ccccc3)nn2c1C,5.79
11,FC(F)(F)c1cnc(N2CCCN(C(=S)Nc3ccccc3)CC2)c(Cl)c1,16.5
12,CCOC(=O)CSc1n[nH]c(NS(=O)(=O)c2ccccc2C(F)(F)F)n1,4.75
13,CN(C(=O)COC(=O)c1ccccc1Cc1ccccc1)C1CCS(=O)(=O)C1 (stereo not shown),-3.46
14,CCOCCCNC(=O)CN1C(=O)c2cccc3cccc1c23,19.1
15,Cc1nc(NC(=O)CSc2cc(C)c3ccccc3n2)c(Cl)cc1Cl,6.57
16,CCOc1ccc(N=C/C=C/c2ccccc2)c(O)c1,8.26
17,COc1ccccc1CNC(=O)COc1ccc(C)nc1[N+](=O)[O-],15.5
18,CCCn1c(SCC(=O)NC(C)(C)C)nnc1-c1ccco1,14.2
19,CN1CCN(CC(=O)N2c3ccccc3C(=O)Nc3cccnc32)CC1.Cl,10.2
20,Cc1ccc(C)c(OCCC(=O)OCC(=O)Nc2ccc(C)c(S(=O)(=O)N3CCCCC3)c2)c1,4.1
21,COc1ccc(S(=O)(=O)CCc2nnc(NC(=O)c3ccc(F)cc3)s2)cc1,8.55
22,CCc1ccccc1NC(=O)CCS(=O)(=O)c1ccc2c(c1)CCCN2C(C)=O,11.2

row,SMILES,"hERG current change (%, negative = inhibition) at 1uM [%]"
1,COc1ccc(C(=O)NC(=S)N(C)Cc2ccccc2)cc1Br,15
2,O=C(c1ccccc1)N1CCN(C(=O)c2nn3c(C(F)(F)F)cc(-c4ccco4)nc3c2Br)CC1,1.06
3,CCN(CC)CCCNC(=O)c1ccc(N2CCCCC2)c(NS(=O)(=O)c2ccc(C)cc2)c1,-7.19
4,COc1ccc(C(C)=O)cc1COC(=O)c1cc(C)oc1C,9.94
5,CC(=O)Nc1cccc(C(=O)/C=C/c2ccc[nH]2)c1,10.8
6,Cc1cc(C(=O)CSc2nnnn2C)c(C)n1CCc1ccc(F)cc1,11.1
7,O=C(Nc1ccc(S(=O)(=O)N2CCCC2)cc1)c1cccc(OC(F)F)c1,19.7
8,Cc1ccc(C2=NS(=O)(=O)N(C)C(C(=O)Nc3ccc(F)cc3F)=C2)cc1,-1.18
9,Cc1cc(C(=O)OCC(=O)Nc2ccc(S(=O)(=O)N3CCOCC3)cc2)c(C)o1,11
10,COC(=O)[C@@H]1CC[C@H](C)[C@@H](c2ccc(C)cc2)N1C(=O)c1ccc(/C=N/O[C@@H](C)CN2CCCCc3nc(C)c(C)cc32)cc1,7.81
11,CCOC(=O)NC(N(O)c1cccc(Cl)c1)C(Cl)(Cl)Cl (stereo not shown),2.15
12,COc1ccc(NC2=CC(c3ccc(OC)c(OC)c3)N(c3ccc(OC)cc3)C2=O)cc1 (stereo not shown),6.8
13,Cn1cc(Br)c(C(=O)Nc2nccs2)n1,5.26
14,CCc1ccc(OCc2nc(-c3ccccn3)no2)c(Br)c1,10.5
15,CC(C)c1ccc(/C=C/C(=O)n2nnc3ccccc32)cc1,15.1
16,C=CCOC(=O)C1C(=O)CC(C)(O)C(C(=O)OCC=C)C1c1ccc(OC)cc1 (stereo not shown),8.88
17,Cc1cccc(C)c1N1C(=O)C(Cl)=C(N2CCCC2)C1=O,12
18,CCCN1CNc2c(c(=O)[nH]c(=S)n2CCc2ccc(OC)c(OC)c2)C1,13.4
19,COc1ccc(NC(=S)N(CCN2CCCCC2)Cc2ccco2)cc1,-9.86
20,CC(C)(C)c1ccc(OCC(=O)N/N=C/c2cc(Br)ccc2OC(=O)c2ccco2)cc1,19.3
21,O=C(CN1CCOCC1)N1CCN(c2ccc([N+](=O)[O-])cc2)CC1,-23.5
22,CCCn1nc(C(=O)Nc2ccc(S(=O)(=O)Nc3ncccn3)cc2)c2ccccc2c1=O,15.1
